Results taken from the antibiotic and cytotoxicity screens of Wong et al. (2023).
The other results are listed elsewhere or left out.

How the values were obtained:
HSkMC = human skeletal muscle cells; assay: cytotoxicity call (relative viability < 0.9); settings: 10 µM
HepG2 = assay: cytotoxicity call (relative viability < 0.9); settings: 10 µM
S. aureus RN4220 = assay: growth inhibition call (relative growth <= 0.2); settings: 50 µM

Row | Structure (SMILES) | cytotoxicity call (HSkMC) | cytotoxicity call (HepG2) | growth inhibition call (S. aureus RN4220)
1 | COc1cc2c3cc1Oc1cc(ccc1O)C[C@@H]1c4c(cc(OC)c(O)c4Oc4ccc(cc4)C[C@@H]3N(C)CC2)CC[N+]1(C)C | inactive | inactive | inactive
2 | C[C@H]1CN([C@@H](C)CO)C(=O)Cc2cc(NS(=O)(=O)c3ccc(F)cc3)ccc2O[C@@H]1CN(C)S(C)(=O)=O | inactive | inactive | inactive
3 | Cc1ccc(S(=O)(=O)Nc2ccc3c(c2)C(=O)N([C@@H](C)CO)C[C@H](C)[C@H](CN(C)S(=O)(=O)c2c(C)noc2C)O3)cc1 | inactive | inactive | inactive
4 | Cc1ccc(S(=O)(=O)Nc2ccc3c(c2)C(=O)N([C@H](C)CO)C[C@@H](C)[C@H](CN(C)S(=O)(=O)c2ccccc2)O3)cc1 | inactive | inactive | inactive
5 | CCCNC(=O)Nc1ccc2c(c1)OC[C@H](C)N(Cc1ccc(-c3ccccn3)cc1)C[C@@H](C)[C@@H](OC)CN(C)C2=O | inactive | inactive | inactive
6 | CC(=O)N1CCn2nncc2C[C@@]1(C)C1CC1 | inactive | inactive | inactive
7 | COC[C@@H](C)NC(=O)C(=O)NC1CC1 | inactive | inactive | inactive
8 | C[C@@H]1CN([C@H](C)CO)S(=O)(=O)c2ccc(C#Cc3ccccn3)cc2O[C@@H]1CN(C)Cc1ccccc1 | inactive | inactive | inactive
9 | COc1ccc(S(=O)(=O)N(C)C[C@@H]2Oc3ccc(NS(=O)(=O)c4cccs4)cc3CC(=O)N([C@@H](C)CO)C[C@H]2C)cc1 | inactive | inactive | inactive
10 | Cc1cn(CC(=O)NCCN)c(=O)[nH]c1=O | inactive | inactive | inactive
11 | O=C(C[C@H]1CC[C@@H]2[C@H](COC[C@H](O)CN2S(=O)(=O)c2cccc(Cl)c2)O1)NCCCN1CCOCC1 | inactive | inactive | inactive
12 | CN(C)C(=O)C[C@@H]1CC[C@H]2[C@@H](COC[C@H](O)CN2S(=O)(=O)c2ccccc2)O1 | inactive | inactive | inactive
13 | COc1ccc(NC(=O)N(C)C[C@@H]2Oc3ccc(NS(=O)(=O)c4cn(C)cn4)cc3CC(=O)N([C@H](C)CO)C[C@@H]2C)cc1 | inactive | inactive | inactive
14 | O=C(COCc1nnn2c1CNCCC2)N1CCCC1 | inactive | inactive | inactive
15 | C[C@H](CO)N1C[C@H](C)[C@H](CN(C)S(C)(=O)=O)Oc2c(NS(=O)(=O)c3ccc(F)cc3)cccc2C1=O | inactive | inactive | inactive
16 | C[C@@H]1CCCCO[C@@H](CN(C)C(=O)Nc2ccc3c(c2)OCO3)[C@@H](C)CN([C@H](C)CO)C(=O)c2cc(NC(=O)CCCCCC(=O)Nc3ccccc3N)ccc2O1 | inactive | inactive | inactive
17 | COc1cccc(S(=O)(=O)N2C[C@H](O)COC[C@H]3O[C@@H](CC(=O)N4CCN(C)CC4)CC[C@@H]32)c1 | inactive | inactive | inactive
18 | Nc1[nH]ncc1Cl | inactive | inactive | inactive
19 | NC1=NCCCC1 | inactive | inactive | inactive
20 | C[C@@H]1CCCCO[C@H](CN(C)Cc2ccc3c(c2)OCO3)[C@H](C)CN([C@H](C)CO)C(=O)c2cc(NS(=O)(=O)c3ccc(F)cc3)ccc2O1 | inactive | inactive | inactive
21 | C[C@@H]1CCCCO[C@@H](CN(C)Cc2ccc(Cl)c(Cl)c2)[C@@H](C)CN([C@H](C)CO)C(=O)c2cc(NC(=O)Cc3ccccc3)ccc2O1 | active | active | inactive
22 | C[C@H](CO)N1C[C@H](C)[C@H](CN(C)S(=O)(=O)c2cccc(F)c2)Oc2ncc(C#Cc3cccc(F)c3)cc2C1=O | inactive | inactive | inactive
23 | C[C@@H]1CCCCO[C@H](CN(C)Cc2ccncc2)[C@H](C)CN([C@H](C)CO)C(=O)c2cc(NC(=O)Nc3ccc(F)cc3)ccc2O1 | inactive | inactive | inactive
24 | C[C@H](CO)N1C[C@H](C)[C@H](CN(C)C(=O)Nc2ccc(C(F)(F)F)cc2)OCCCC[C@H](C)Oc2ccc(NS(=O)(=O)c3cn(C)cn3)cc2C1=O | inactive | inactive | inactive
25 | CN1C(=O)c2cc(NS(=O)(=O)c3cccc(F)c3)ccc2OC[C@@H]2O[C@@H](CC(=O)NCCN3CCCCC3)CC[C@H]21 | inactive | inactive | inactive
26 | CCCNC(=O)Nc1ccc2c(c1)OC[C@H](C)N(C(=O)C1CCOCC1)C[C@H](C)[C@H](OC)CN(C)C2=O | inactive | inactive | inactive
27 | C[C@@H]1CN([C@H](C)CO)S(=O)(=O)c2ccc(-c3cncnc3)cc2O[C@@H]1CN(C)C(=O)NC1CCCC1 | inactive | inactive | inactive
